From patent US9605080B2, “Antibodies against CD73” (BRISTOL-MYERS SQUIBB COMPANY, priority 2014, dated 2017)

Columns and labels:
[1] = biological target: T1, CD73 in Calu6 cells (Homo sapiens, UniProt P21589); assay: Kinetic high-content internalization study, Calu6 cells; assay type: cell-based; conditions: FIGS. 23A-D, several cell lines
T1 construct: Calu6 (CD73 endogenous expressors; human pulmonary adenocarcinoma cell line); endogenous in cells; host or cells: Calu6 (human pulmonary adenocarcinoma)
T1 sequence (P21589 27-549): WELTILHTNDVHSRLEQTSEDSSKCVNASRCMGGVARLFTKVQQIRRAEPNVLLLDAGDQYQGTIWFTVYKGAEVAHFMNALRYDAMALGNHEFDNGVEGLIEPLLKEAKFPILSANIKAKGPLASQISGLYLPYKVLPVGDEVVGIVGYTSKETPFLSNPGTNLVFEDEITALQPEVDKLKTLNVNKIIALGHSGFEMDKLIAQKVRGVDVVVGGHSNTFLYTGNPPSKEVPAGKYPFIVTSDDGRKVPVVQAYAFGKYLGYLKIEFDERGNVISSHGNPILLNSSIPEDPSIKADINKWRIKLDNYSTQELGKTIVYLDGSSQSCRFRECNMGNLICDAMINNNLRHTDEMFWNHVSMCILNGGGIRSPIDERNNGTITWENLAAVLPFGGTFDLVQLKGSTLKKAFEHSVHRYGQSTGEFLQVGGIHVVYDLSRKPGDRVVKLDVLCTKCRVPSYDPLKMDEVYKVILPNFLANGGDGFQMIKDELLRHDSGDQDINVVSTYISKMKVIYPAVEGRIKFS
Procedure: Kinetic internalization studies were performed to assess the rate of internalization. Cells (2,000 cells/well) in 20 μl of complete medium (Gibco RPMI Media 1640 with 10% heat inactivated fetal bovine serum) were plated in 384 BD Falcon plate and grown overnight at 37° C. 5% CO2 and 95% humidity. CD73 antibodies were diluted with PBS buffer containing 0.2% BSA to 10 μg/ml and added 5 μl/well into the cell plate. The cells were incubated with antibodies for a 0-2 hour time course at 37° C., followed by washing once with PBS buffer. The cells were subsequently fixed with formaldehyde (final 4% in PBS) at room temperature for 10 minutes, and then washed once with 30 ul. PBS. […] The plate was incubated at 4° C. for overnight. On the next day, after 3 washes in PBS buffer, Secondary antibody Alexa488-goat anti human with DAPI were added. The cells were stained for 60 minutes at room temperature, after 3 washes, images were acquired using Arrayscan Vti (Cellomics, Pittsburgh, Pa.).

[2] = Differential scanning calorimetry, thermal stability of CD73 mAbs; assay type: physicochemical; conditions: PBS pH 7.1
Procedure: The thermal stability of CD73 mAbs were determined using a MicroCal Capillary DSC instrument (GE Healthcare). Antibodies were analyzed at a concentrations of 0.5-0.75 mg/ml in PBS pH 7.1. To stabilize the DSC instrument baseline and obtain a consistent thermal history, multiple scans of buffer alone in both the sample and reference cell were recorded prior to sample analysis. Sample scans contained mAb in the sample cell and PBS pH 7.1 in the reference cell. All scans were run from 10-110° C. at a scan rate of 60°/hr using a 5 minute pre-cycle thermostat period and no post-cycle thermostat period. Data (as shown in Table 15 below) were analyzed using MicroCal Origin Cap DSC analysis software. The appropriate buffer-buffer blank scans were subtracted from the sample-buffer data, and the transition midpoint temperature (Tm) values were determined by fitting the data to a non-2-state model. Tm1, Tm2 and Tm3 are the Tms for different domains in the antibodies.

B1: 5F8: human anti-CD73 mAb, IgG1za, predominant light chain VK1 (antibody)
heavy: EVQLVESGGGLVQPGGSLRLSCAASGFTFSSYWMHWVRQAPGKGLVWVSRIISDGSSTGYADSVKGRFTISRDNAKNTLYLQMNSLRAEDTAVYYCAREFSSGWYFDYWGQGTLVTVSS[sequence of human IgG1 constant region omitted]
light: AIQLTQSPSSLSASVGDRVTITCRASQGISSALAWYQQKPGKAPKLLIYDASSLESGVPSRFSGSGSGTDFTLTISSLQPEDFATYYCQQFSSYPRTFGQGTKVEIKRTVAAPSVFIFPPSDEQLKSGTASVVCLLNNFYPREAKVQWKVDNALQSGNSQESVTEQDSKDSTYSLSSTLTLSKADYEKHKVYACEVTHQGLSSPVTKSFNRGEC
modifications: Synthetic: 5F8 (full length heavy chain); Synthetic: 5F8 (full length light chain 1)
notes: human anti-CD73 mAb, IgG1za, predominant light chain VK1
internalization [1]: did not internalize significantly | DSC Tm1 (oC) [2]: 68.7 oC | DSC Tm2 (oC) [2]: 82.7 oC | DSC Tonset (oC) [2]: 59.0 oC
